Laboratory results as given in PubChem BioAssay AID686979 (National Center for Advancing Translational Sciences (NCATS), 2013).
Among all 420,000 compounds or so, about 50,000 (12%) were called active. This list was built around the results that the source calls inconclusive (neither active nor inactive); the mix of calls is not that of the screen. The call rests on the fitted dose curve; in most records, active means well fitted inhibition curve with a large enough effect; inconclusive means small, poorly fitted or top-dose-only effect; inactive means flat fitted curve, though single readings scatter. Potencies of inconclusive entries are left out as doubtful fits.

Assay: qHTS for Inhibitors of human tyrosyl-DNA phosphodiesterase 1 (TDP1): qHTS in cells in presence of CPT; further: nearly all actives have a fitted effect of over 55% in size
Conditions: chicken DT40 Tdp1-/-;hTDP1 cells + 20 nM CPT, ATP luminescence, 48 h; activity change, negative = growth inhibition: at 46.2 µM (top of the series) unless noted
Outline: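 Chicken DT40 Tdp1-/- cells stably complemented with human TDP1 were seeded at 400 cells/well in medium containing 20 nM camptothecin, exposed to pin-transferred compounds, and grown at 37 °C for at least 48 hr. Viability was read as ATP luminescence.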
On the % scale 0 is the no-effect control and ±100 the full control effect; potency means the concentration at half of the fitted maximal effect; tags describe the fitted curve by direction and shape.

Row | Structure (SMILES) | Potency | activity change, negative = growth inhibition
1 | CCc1cccc(CC)c1NC(=O)CN1C(=O)C(=O)c2ccccc21 | active: 5.17 µM | –
2 | O=c1c(-c2ccc(Cl)cc2)nc2cnc(Oc3ccccc3)nc2n1C1CC1 | inactive | –
3 | CC(C)c1ccc(NC(=O)Cn2c(=O)n(CCc3ccccc3)c(=O)c3ccccc32)cc1 | inconclusive [inhibitor, single point] | –
4 | Cc1ccccc1-c1nc(-c2ccc(NC(=O)c3ccc4c(c3)OCO4)cc2)no1 | inconclusive [inhibitor, partial curve, poor fit] | –
5 | COc1ccc(NC(=O)c2c(NC(=O)CNCC(C)C)sc3c2CCC3)c(OC)c1 | active: 4.11 µM | –
6 | Nc1nc(COC(=O)C2CC(=O)N(Cc3ccccc3Cl)C2)nc(Nc2ccccc2)n1 (stereo not given) | inactive | –
7 | CC[C@@H]1[C@H]2CCCC(=O)N3CC[C@@H](C[C@@H]1OC(=O)Nc1ccc4c(c1)OCO4)[C@@H]23 | inconclusive [inhibitor, single point] | –
8 | CCCCc1cc(=O)oc2c(C)c(OCC(=O)N3CCCC3)ccc12 | inconclusive [inhibitor, single point] | –
9 | CCOc1ccc(S(=O)(=O)N2CCC(C(=O)Nc3cc(S(C)(=O)=O)ccc3Cl)CC2)cc1 | – | inconclusive: -32.7% [inhibitor]
10 | CCCc1nc2ccccc2c(=O)n1/N=C/c1ccc(O)cc1 | inconclusive [inhibitor, single point] | –
11 | Cc1ccc(-c2nnc(Nc3cccc(O)c3)c3ccccc23)cc1S(=O)(=O)N1CCN(C)CC1 | inconclusive [inhibitor, single point] | –
12 | Cc1ccccc1OCC(O)Cn1c(=N)n(CCN2CCCCC2)c2ccccc21 (stereo not given) | active: 5.8 µM | –
13 | Cc1ccc(-c2nc3ccccc3o2)cc1NC(=S)NC(=O)/C=C/c1ccco1 | active: 2.91 µM | –
14 | CCCN(CCC)S(=O)(=O)c1ccc(C(=O)N2CC3CCC(CC3)C2)cc1 | inconclusive [inhibitor, single point] | –
15 | CN(c1ccc(C(=O)NCC2CCCO2)cc1)S(=O)(=O)c1ccc(Cl)cc1 (stereo not given) | inconclusive [inhibitor, single point] | –
16 | CC1CCCC(NC(=O)CC2Nc3ccccc3NC2=O)C1C (stereo not given) | – | inconclusive: -30.3% [inhibitor]
17 | O=C(COc1ccc(Cl)cc1Br)NC(=O)NC1CCCC1 | inactive | –
18 | COC(=O)c1ccc(CN2CCCC(CO)(Cc3ccc(F)cc3F)C2)cc1 (stereo not given) | inactive | –
19 | Cc1ccc2c(c1)N=C(c1ccccc1)CC(C(Cl)Cl)=N2 | inconclusive [inhibitor, single point] | –
20 | CCOc1ccc(S(=O)(=O)N2CCC(C(=O)NCCN3CCOCC3)CC2)cc1C | inactive | –
21 | CCN([C@H](CO)CC(C)C)S(=O)(=O)c1ccccc1 | inconclusive [inhibitor, single point] | –
22 | Cc1nc2nc(SCC(=O)NCc3ccccc3Cl)nn2c(C)c1Cc1ccccc1 | inconclusive [inhibitor, single point] | –
23 | COc1ccc(/C=C/C(=O)OCC(=O)Nc2ccc(OC)c(S(=O)(=O)N3CCCCC3)c2)cc1 | inconclusive [inhibitor, partial curve] | –
24 | CCCCNc1c(-c2ccccn2)nc2nc(C)cc(C)n12 | inconclusive [inhibitor, single point] | –

Row | Structure (SMILES) | Potency | activity change, negative = growth inhibition
25 | CCc1ccc(NC(=O)C(CC)n2c(=O)c(C(F)(F)F)nc3ccccc32)cc1 (stereo not given) | inconclusive [inhibitor, partial curve] | –
26 | O=C(N[C@H]1C=C[C@H](CC(=O)N2CCCCC2)O[C@@H]1CO)c1cccc(F)c1 | inactive | –
27 | COc1cc(NS(=O)(=O)c2ccc3[nH]c4c(c3c2)CCCCCC4)cc(OC)c1 | inconclusive [inhibitor, single point] | –
28 | CCc1ccc(C(=O)c2cncc(Br)c2)cc1 | active: 10.3 µM | –
29 | CC1=C(C#N)C(c2cn(-c3ccccc3)nc2-c2cccs2)C(C#N)=C(C)N1 | inactive | –
30 | COC(=O)/C=C/c1ccccc1CN1[C@@H](CC(=O)OC)c2ccccc2S1(=O)=O | inactive | –
31 | CCOc1cc(NC(=S)NCCc2ccccc2)c(OCC)cc1NC(C)=O | inactive | –
32 | COc1ccc(Cl)cc1-c1cc(C(=O)NC2CCCCC2)[nH]n1 | inconclusive [inhibitor, single point] | –
33 | O=c1[nH]cc(S(=O)(=O)N2CCN(c3ccccc3F)CC2)c(=O)[nH]1 | inactive | –
34 | CO/N=C(/CN1CCCCC1)c1ccc(Cl)cc1 | inactive | –
35 | Cc1ccc(-c2ccnc(-n3ncc(C(=O)NCCN4CCOCC4)c3C3CC3)n2)o1 | active: 20.6 µM | –
36 | CCNC(=O)C1(C)CCCN(Cc2csc(-c3ccc(Cl)cc3)n2)C1 (stereo not given) | inactive | –
37 | CN1C2C=C3C(C#N)=C(N)C(C#N)(C#N)[C@@H](c4ccsc4)[C@@H]3C1CC2 (stereo not given in full) | inconclusive [inhibitor, partial curve] | –
38 | COc1ccc(-c2noc(-c3ccoc3C)n2)cc1 | inconclusive [inhibitor, single point] | –
39 | COCCSc1ccccc1C(=O)Nc1cc([N+](=O)[O-])ccc1OC | inactive | –
40 | Cc1ccccc1-c1nnc2c3ccccc3c(C)nn12 | inactive | –
41 | CCOC(=O)/C(=N\Nc1ccccc1[N+](=O)[O-])c1csc(Nc2ccccc2)n1 | inconclusive [inhibitor, single point] | –
42 | CS(=O)(=O)Nc1cccc(-c2cc(Nc3ccccc3)ncn2)c1 | inconclusive [inhibitor, single point] | –
43 | C[C@@H](c1ccccc1)N1Cc2ccccc2Oc2cc(Br)ccc2S1(=O)=O | inconclusive [inhibitor, single point] | –
44 | O=[N+]([O-])c1cc(C(F)(F)F)ccc1NC1CCN(Cc2ccccc2)C1 (stereo not given) | inconclusive [inhibitor, single point] | –
45 | Fc1ccc(CN2CCCN(Cc3nc(-c4ccc5c(c4)OCO5)no3)CC2)cc1 | inconclusive [inhibitor, single point] | –
46 | COc1ccc(-c2cc(C(=O)Nc3c(C)nn(Cc4ccc(C)cc4)c3C)no2)cc1OC | inconclusive [inhibitor, partial curve] | –
47 | CN(C)S(=O)(=O)c1ccc2[nH]cc(/C=C/c3nc4ccccc4c(=O)n3-c3ccccc3)c2c1 | active: 5.8 µM | –
48 | CCOC(=O)c1c(C)[nH]c(C)c1S(=O)(=O)NCc1ccccc1OCC | inactive | –

Row | Structure (SMILES) | Potency | activity change, negative = growth inhibition
49 | CCN(CC)P(=O)(Nc1cccc(C(F)(F)F)c1)c1ccc(N(C)C)cc1NC(=O)c1ccco1 (stereo not given) | inconclusive [inhibitor, single point] | –
50 | Cc1sc(NC(=O)C2CC(=O)N(Cc3ccco3)C2)nc1-c1ccccc1 (stereo not given) | inconclusive [inhibitor, single point] | –
51 | COc1ccc(NC(=O)CSc2ncccc2C(=O)OC(C)C)cc1OC | active: 11.6 µM | –
52 | N#Cc1ccc(CN2CCN(C(=O)CN3C(=O)NC4(CCCC4)C3=O)CC2)cc1 | inconclusive [inhibitor, single point] | –
53 | C=CCOC(=O)C1=C(C)N=C2SCCC(=O)N2C1c1cccs1 (stereo not given) | inconclusive [inhibitor, single point] | –
54 | COc1cccc(NS(=O)(=O)c2ccc(-c3cc(C)no3)s2)c1 | inconclusive [inhibitor, single point] | –
55 | COc1ccc(NC(=O)c2cc(-c3ccc(F)cc3OC)n[nH]2)c(OC)c1 | active: 16.4 µM | –
56 | CCOC(=O)c1cc(-c2ccccc2)n(-c2cccc(C(=O)Nc3ccc(OCC)cc3)c2)c1C | inconclusive [inhibitor, partial curve] | –
57 | CS(=O)(=O)Nc1ccccc1C(=O)OCC(=O)NC1CC1 | inactive | –
58 | Cc1cc(Cl)c(OCCOCCN2CCC(C)CC2)c(Br)c1 | active: 23.1 µM | –
59 | Cc1ccc2c(c1)/C(=N/OS(=O)(=O)c1ccccc1)CCS2 | inconclusive [inhibitor, partial curve, poor fit] | –
60 | Cc1[nH]c2ccc3ccccc3c2c(=O)c1C/C=C/Cl | inactive | –
61 | CC(=O)Oc1ccc(C(=O)[C@H]2[C@H]3C(=O)N(c4ccccc4)C(=O)[C@H]3[C@@H]3C=CC=NN32)cc1 | – | inconclusive: -31.7% [inhibitor]
62 | COc1cccc(Cn2c(=O)n(Cc3ccco3)c(=O)c3oc4ccccc4c32)c1 | inconclusive [inhibitor, single point] | –
63 | Cc1c(Cl)cccc1N/C(=N/S(=O)(=O)c1cccs1)c1ccccc1 | inactive | –
64 | CN(C(=O)CSc1cn(CC(=O)N2CCOCC2)c2ccccc12)c1ccccc1 | inconclusive [inhibitor, single point] | –
65 | O=c1[nH]c2cc3c(cc2cc1CN(Cc1cccs1)Cc1nnnn1Cc1ccco1)OCCO3 | active: 14.6 µM | –
66 | CCN(CC)c1ccc(NC(=O)CSc2nc(C3CC3)nc3ccccc23)cc1C | active: 4.11 µM | –
67 | O=C(Nc1ccc(OC(F)F)cc1)c1cc(S(=O)(=O)N2CCOCC2)ccc1F | inconclusive [inhibitor, single point] | –
68 | COc1ccccc1OCCNC(=O)c1ccc(C)c(S(=O)(=O)N2CCOCC2)c1 | inconclusive [inhibitor, single point] | –
69 | O=C1C(O)CC2c3ccccc3CC3(CCCC3)N12 (stereo not given) | inconclusive [inhibitor, single point] | –
70 | COCCNC(=O)c1cccc(OC2CCN(Cc3ccc(OC(F)F)cc3)CC2)c1 | inactive | –
